Data taken from patent publication US20140341843A1 (ELEVEN BIOTHERAPEUTICS, published 2014).

Target: T1, soluble recombinant human IL-1RI (corresponding to the extracellular domain of IL-1RI) (human, UniProt P14778 18-336)
T1 construct: extracellular domain; also called interleukin-1 receptor I; IL-1R1 receptor
T1 sequence (looked up): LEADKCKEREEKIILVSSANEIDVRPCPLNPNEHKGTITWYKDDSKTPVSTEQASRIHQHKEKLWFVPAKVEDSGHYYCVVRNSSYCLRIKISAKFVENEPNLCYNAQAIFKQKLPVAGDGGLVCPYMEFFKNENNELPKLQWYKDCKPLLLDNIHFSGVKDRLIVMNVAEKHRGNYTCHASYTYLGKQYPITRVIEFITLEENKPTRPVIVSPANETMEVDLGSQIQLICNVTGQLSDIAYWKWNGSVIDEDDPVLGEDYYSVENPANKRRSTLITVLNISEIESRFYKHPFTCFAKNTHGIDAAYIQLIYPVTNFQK
Test: Kd to the IL-1R1 receptor as listed in Table 15; method not restated, values are the SPR values of Table 7 rounded

Kd: 0.33 nM
B1: IL-1Ra (human) (ligand)
chain: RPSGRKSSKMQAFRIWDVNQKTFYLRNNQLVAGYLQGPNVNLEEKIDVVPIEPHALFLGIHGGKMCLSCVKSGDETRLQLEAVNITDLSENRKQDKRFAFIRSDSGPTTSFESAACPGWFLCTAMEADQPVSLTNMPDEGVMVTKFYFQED
notes: also called interleukin-1 receptor antagonist
